Here are results for 110 sequences from the supplement of paper PMC3334620.

Whole data set: some 33,000 sequences, median “E-score (-0.5 to 0.5)” near -0.036, cut for the highest 2% near 0.37. This is one part of the list.

The target of this test is T1, Yer064c (UniProt P40041).
T1 sequence: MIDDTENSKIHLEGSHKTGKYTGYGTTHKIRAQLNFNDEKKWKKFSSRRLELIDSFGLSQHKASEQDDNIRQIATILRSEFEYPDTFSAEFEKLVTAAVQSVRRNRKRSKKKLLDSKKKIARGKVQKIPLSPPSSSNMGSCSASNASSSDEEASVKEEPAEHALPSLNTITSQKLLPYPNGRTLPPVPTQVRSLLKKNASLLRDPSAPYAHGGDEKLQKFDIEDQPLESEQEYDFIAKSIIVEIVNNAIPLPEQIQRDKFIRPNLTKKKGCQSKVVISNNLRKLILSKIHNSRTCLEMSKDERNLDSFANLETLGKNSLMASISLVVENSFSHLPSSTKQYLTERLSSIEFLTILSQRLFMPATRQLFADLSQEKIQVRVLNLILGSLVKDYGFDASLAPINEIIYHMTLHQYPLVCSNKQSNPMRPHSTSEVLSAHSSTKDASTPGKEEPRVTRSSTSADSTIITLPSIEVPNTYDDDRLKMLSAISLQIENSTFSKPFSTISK
As to the kind of experiment: PBM E-score (8-mer binding enrichment) (E-score (-0.5 to 0.5)); higher = stronger / more preferred TF binding; most listed sequences are background and not binding sites. Particulars: protein concentration: 200 nM; construct: GST-full length. As for the experimental part:
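Universal 'all 10-mer' protein binding microarrays (Agilent AMADID 015681) probed with GST-tagged S. cerevisiae TFs (full-length or DBD) made by in vitro transcription/translation (PURExpress), about 100-200 nM. Bound TF was detected with fluorescent anti-GST. Each ungapped 8-mer (which stands for itself and its reverse complement) is scored by the PBM enrichment score (E-score), a modified Wilcoxon-Mann-Whitney statistic from -0.5 to +0.5, computed with the Universal PBM Analysis Suite. Scale: above 0.35 generally sequence-specific binding.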
On to ATAGATAC, for which the “PBM E-score” value was -0.173.
The value for GTCATAAC was 0.326; that for AGGCCAGA was -0.398.
As for CCGGTTTA, the “PBM E-score” value is -0.155.
On to CCACCGGG, for which the “PBM E-score” value is -0.218.
The same measure for CATTTAAA: 0.206.
As for GAATCATA, the “PBM E-score” value stood at 0.464.
As to AAAAGTGC, the “PBM E-score” value is 0.0431.
For CATCACTA, the “PBM E-score” value was determined as 0.0474.
Consider CTAAACAG, for which the “PBM E-score” value is 0.0256.
As for CGGTGACA, the “PBM E-score” value is -0.069.
Turning to AACATGTG, the “PBM E-score” value is 0.137.
CATAGCAC: the “PBM E-score” value was 8e-05.
Regarding CCCCGACG, the “PBM E-score” value was -0.136.
As to AACCCGCG, the “PBM E-score” value was -0.0643.
Consider CTAAAGAG, for which the “PBM E-score” value was 0.142.
On to CTAGACGC, for which the “PBM E-score” value was -0.172.
Turning to CGTTACCA, the “PBM E-score” value was -0.116.
On to ATTACTTA, for which the “PBM E-score” value was 0.129.
CTTATTTC: the “PBM E-score” value worked out at 0.0896.
On to CCGTACCA, for which the “PBM E-score” value is -0.0747.
Turning to GGCAGGAC, the “PBM E-score” value was -0.196.
As to GAACGACA, the “PBM E-score” value is -0.118.
For GCCTCCCA, the “PBM E-score” value is -0.292.
On to ACGTTGCT, for which the “PBM E-score” value was -0.105.
The value for CACTGTAC was -0.114; that for CATAATGC was -0.095.
Take AGTTTTTG: the “PBM E-score” value amounted to 0.103.
As to GATTTACA, the “PBM E-score” value was 0.114.
As for GCACCGAC, the “PBM E-score” value is -0.0732.
As to GAAGCTGA, the “PBM E-score” value is -0.00743.
Consider CACTACGA, for which the “PBM E-score” value was determined as 0.0996.
GGATTAGA: the “PBM E-score” value is -0.122.
The same measure for AGATAACG: 0.0367; for TCGATTCA: 0.256; for CCTCATCA: -0.114.
On to ATCTCTCG, for which the “PBM E-score” value is -0.044.
Regarding GTTACAGA, the “PBM E-score” value was -0.0621.
The value for ATACGAAT was -0.0243; that for CCCACGCC was -0.138; that for ACCGTTAC was 0.0779.
Take CACTCTAA: the “PBM E-score” value is 0.149.
In the case of GGGAATTA, the “PBM E-score” value was -0.0956.
With GACGCCTC, the “PBM E-score” value was -0.216.
On to CATTATAG, for which the “PBM E-score” value came to 0.174.
GCAGTTAC: the “PBM E-score” value was -0.0144.
Turning to GTAAAGAA, the “PBM E-score” value is -0.0534.
The same measure for CGAATGAC: 0.253; for AAGAAGGC: -0.313; for CGTAGCTC: -0.149.
Take CATTTAAG: the “PBM E-score” value was 0.0396.
In the case of CACCCATG, the “PBM E-score” value was determined as 0.0859.
Consider AAAGGCAA, for which the “PBM E-score” value was determined as 0.0611.
For the sequence ATTCGCAA, the “PBM E-score” value was -0.0124.
As for CACTACTA, the “PBM E-score” value amounted to 0.0937.
In the case of GGGGTCTA, the “PBM E-score” value is -0.0717.
Regarding GTATCCCA, the “PBM E-score” value is -0.174.
With AGGTGCAC, the “PBM E-score” value is -0.143.
The value for AAGTTTAT was 0.0447; that for GCATAGCA was -0.144; that for GACCTTGC was -0.127.
As to ACAGAAAA, the “PBM E-score” value turned out to be 0.237.
With AGATCATA, the “PBM E-score” value turned out to be 0.15.
Consider CCGCAAGA, for which the “PBM E-score” value is -0.189.
Take AAACTCCT: the “PBM E-score” value was -0.0312.
The value for AATATAGA was 0.0851; that for AGTGCGTG was 0.145; that for GCATCGCC was -0.301.
For ATGAGACA, the “PBM E-score” value was 0.341.
As for GACCGAAC, the “PBM E-score” value is -0.059.
The value for GGCAAAGA was -0.0316.
In the case of AATGGTTC, the “PBM E-score” value amounted to 0.232.
The same measure for GAGTGGCC: -0.216; for ACACGTCG: -0.167.
As for CAAAGCTG, the “PBM E-score” value was -0.0364.
Turning to AACCGAGT, the “PBM E-score” value turned out to be 0.17.
Regarding AAGGTTAT, the “PBM E-score” value is -0.0372.
Take AACTGTTA: the “PBM E-score” value amounted to 0.0274.
The value for CCTGCGTA was 0.00633; that for CAATAAGC was -0.0857; that for AGTAGTAC was 0.136.
Take GGCATACC: the “PBM E-score” value is -0.234.
Take ATATGAGC: the “PBM E-score” value came out at 0.0528.
For the sequence TCATGGCA, the “PBM E-score” value was determined as 0.153.
The same measure for TAACCCAA: 0.132; for CGTCGAGC: -0.122.
The value for CCCAATTC was -0.103; that for AGTAAGGA was 0.0173.
Take ACGCGACC: the “PBM E-score” value is -0.263.
Consider CAATCGCG, for which the “PBM E-score” value was -0.0813.
In the case of GGCAGGGA, the “PBM E-score” value is -0.0423.
As to CATTTGGC, the “PBM E-score” value was -0.0348.
In the case of GTGACTTA, the “PBM E-score” value was 0.443.
As for ACGCCTGA, the “PBM E-score” value is 0.0377.
As to AAGGTAAG, the “PBM E-score” value is -0.0105.
Take TATGCGCA: the “PBM E-score” value was -0.147.
For ATGACTTC, the “PBM E-score” value was 0.469.
With GACGGCAA, the “PBM E-score” value is -0.0972.
With ACTTTCCT, the “PBM E-score” value is -0.019.
Regarding CGCAAGCC, the “PBM E-score” value was -0.177.
For AAAACTGG, the “PBM E-score” value was -0.243.
Regarding ACCTCGCC, the “PBM E-score” value is -0.203.
Turning to CGAAGCAC, the “PBM E-score” value is -0.0626.
As for TATACATA, the “PBM E-score” value was 0.127.
For ACAGCACT, the “PBM E-score” value was -0.0496.
The same measure for CGGGACAC: -0.146.
Take CAATGTTA: the “PBM E-score” value is -0.0325.
Consider GCTTTCTA, for which the “PBM E-score” value was -0.00665.
In the case of AACTAATT, the “PBM E-score” value was determined as 0.128.
As for CGTCGTTA, the “PBM E-score” value was -0.0429.
